{
  "source": "the supplement of paper PMC4604168 (melanoma cell lines)",
  "note": "Some of the results follow. Many values rest on one well or one pass, so single values are uncertain.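 Further: cells treated in 1,536-well plates, then fixed and DAPI-stained, with nuclei counted from automated high-throughput microscope images.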",
  "data": [
    {"system": "A375", "test": "cell count relative to DMSO control; melanoma cells; higher = more viable cells", "conditions": "library dose: standard library concentration; 72 h", "units": {"cell count": "%"}, "values": [
      {"smiles": "C=C(c1ccc(C(=O)O)cc1)c1cc2c(cc1C)C(C)(C)CCC2(C)C", "note": "[Bexarotene] + OCCn1cc(-c2cnc3nnn(Cc4ccc5ncccc5c4)c3n2)cn1 [PF04217903] (first compound 10 µM, partner dose 5 µM)", "cell count": 89.9},
      {"smiles": "CS(=O)(=O)c1ccc(C(=O)Nc2ccc(Cl)c(-c3ccccn3)c2)c(Cl)c1", "note": "[vismodegib] + CN(C)S(=O)(=O)c1ccc2c(c1)/C(=C/c1cc3c([nH]1)CCCC3)C(=O)N2 [SU6656] (first compound 5 µM, partner dose 2 µM)", "cell count": 153},
      {"smiles": "CS(=O)(=O)c1ccc(C(=O)Nc2ccc(Cl)c(-c3ccccn3)c2)c(Cl)c1", "note": "[vismodegib] + C#Cc1cccc(Nc2ncnc3cc(OCCOC)c(OCCOC)cc23)c1 [erlotinib] (first compound 5 µM, partner dose 4 µM)", "cell count": 106},
      {"smiles": "CS(=O)(=O)c1ccc(C(=O)Nc2ccc(Cl)c(-c3ccccn3)c2)c(Cl)c1", "note": "[vismodegib] + O=C(O)c1ccc(-c2c[nH]c3ncc(-c4ccccc4)cc23)cc1C1CCCC1 [GSK650394] (first compound 5 µM, partner dose 0.8 µM)", "cell count": 110},
      {"smiles": "CS(=O)(=O)c1ccc(C(=O)Nc2ccc(Cl)c(-c3ccccn3)c2)c(Cl)c1", "note": "[vismodegib] + O=C(O)c1ccc2c(c1)nc(Nc1cccc(Cl)c1)c1ccncc12 [CX4945] (first compound 5 µM, partner dose 2 µM)", "cell count": 82.3}
    ]}
  ]
}
